Test [1] relates to RAW-Dual. The test can be described thus: NF-kB SEAP reporter activity, fold change vs agonist alone; higher = enhanced NF-kB activity. Conditions: library stock concentration (final ~1000-fold dilution): 10 mM. The gist of the method:
(§1)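 Library stock was pin-tooled at 50 nL into 384-well plates of RAW-Dual macrophages (50,000 cells/well, DMEM), followed 1 h later by a PRR agonist, and the cells were kept at 37 °C, 5% CO2. Supernatant collected after 20 hours was read for IRF by QuantiLuc luminescence and for NF-κB by QuantiBlue absorbance at 620 nm. Reporter activity is fold change over agonist-alone wells, and a well counted as cytotoxic when its IncuCyte confluency was below 70% of agonist controls in both mask sets.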

For test [2], the system named is RAW-Dual. The test can be described thus: NF-kB SEAP reporter activity, fold change vs agonist alone; cytotoxicity flag (confluency mask): not cytotoxic; higher = enhanced NF-kB activity. The procedure, abridged:
as §1

Test [3] has as its system RAW-Dual. The test can be described thus: NF-kB SEAP reporter activity, fold change vs agonist alone; cytotoxicity flag (confluency mask): cytotoxic (confluency <70% of control); higher = enhanced NF-kB activity. The gist of the method:
as §1

Setting [4] is: cytotoxicity flag (confluency mask): not cytotoxic, agonist: Imiquimod (TLR7) […].
Where [5] appears, read: cytotoxicity flag (confluency mask): not cytotoxic, agonist: MPLA (TLR4) […].
Where [6] appears, read: agonist: ODN 1826 (TLR9) 0.5 ug/mL.
[7] abbreviates: agonist: Pam2CSK4 (TLR2/6) 0.1 ug/mL.
The mark [8] stands for this setting: agonist: Pam3CSK4 (TLR2/1) 0.1 ug/mL.

The full ranking holds about 2,900 compounds; the median of “NF-kB SEAP reporter activity, fold change vs agonist alone” is about 0.99, and the highest 2% start at about 2.6. Some of the results follow.

Consider `Cn1c(=O)c2[nH]cnc2n(C)c1=O.Cn1c(=O)c2[nH]cnc2n(C)c1=O.NCCN`, for which the “NF-kB SEAP reporter activity” value was 0.765 with RAW-Dual [1] (setting [4]) and 1.06 in the test with RAW-Dual [1] (setting [5]).

As for `Cn1c(=O)c2[nH]cnc2n(C)c1=O.Cn1c(=O)c2[nH]cnc2n(C)c1=O.NCCN` (library stock concentration (final ~1000-fold dilution): 10 mM), the “NF-kB SEAP reporter activity” value was found to be 1.11 in the test with RAW-Dual [2] (agonist: LPS (TLR4) 0.1 ug/mL), 0.958 in the test with RAW-Dual [2] (setting [6]), 1.14 in the test on RAW-Dual [2] (setting [7]) and 1.13 with RAW-Dual [2] (setting [8]).

In the case of `CC(=O)Oc1ccccc1C(=O)O.CC(=O)Oc1ccccc1C(=O)O.NC(N)=O` (library stock concentration (final ~1000-fold dilution): 10 mM), the “NF-kB SEAP reporter activity” value came to 0.797 in the test on RAW-Dual [2] (agonist: LPS (TLR4) 0.1 ug/mL), 0.977 in the test on RAW-Dual [2] (setting [6]), 1.14 in the test on RAW-Dual [2] (setting [7]) and 0.999 in the test with RAW-Dual [2] (setting [8]).

For `CC(=O)Oc1ccccc1C(=O)O.CC(=O)Oc1ccccc1C(=O)O.NC(N)=O`, the “NF-kB SEAP reporter activity” value amounted to 0.905 in the test with RAW-Dual [1] (setting [4]) and 1.07 in the test on RAW-Dual [1] (setting [5]).

Take `Cl.Cl.O=S(=O)(NCCNC/C=C/c1ccc(Br)cc1)c1cccc2cnccc12`: the “NF-kB SEAP reporter activity” value in the test on RAW-Dual [1] (setting [4]) was 1.61; in the test with RAW-Dual [1] (setting [5]), 1.3.

Consider `Cl.Cl.O=S(=O)(NCCNC/C=C/c1ccc(Br)cc1)c1cccc2cnccc12` (library stock concentration (final ~1000-fold dilution): 10 mM), for which the “NF-kB SEAP reporter activity” value in the test with RAW-Dual [2] (agonist: LPS (TLR4) 0.1 ug/mL) was found to be 1.26; with RAW-Dual [2] (setting [6]), 0.195; in the test on RAW-Dual [2] (setting [7]), 0.923; in the test with RAW-Dual [2] (setting [8]), 1.13.

Turning to `c1cn2cc(-c3ccc4cn[nH]c4c3)nc(Nc3ccc(N4CCOCC4)cc3)c2n1`, the “NF-kB SEAP reporter activity” value in the test with RAW-Dual [1] (setting [4]) came out at 1.03; in the test with RAW-Dual [1] (setting [5]) it was 1.06.

Regarding `c1cn2cc(-c3ccc4cn[nH]c4c3)nc(Nc3ccc(N4CCOCC4)cc3)c2n1` (library stock concentration (final ~1000-fold dilution): 10 mM), the “NF-kB SEAP reporter activity” value with RAW-Dual [2] (agonist: LPS (TLR4) 0.1 ug/mL) stood at 1.06; in the test on RAW-Dual [2] (setting [6]), 1.06; with RAW-Dual [2] (setting [7]) it was 0.882; with RAW-Dual [2] (setting [8]) it was 1.06.

Take `CCC(NC(=O)C(C)NC)C(=O)N1CC(O)CC1Cc1c(-c2[nH]c3cc(F)ccc3c2CC2CC(O)CN2C(=O)C(CC)NC(=O)C(C)NC)[nH]c2cc(F)ccc12` (stereo unspecified) (library stock concentration (final ~1000-fold dilution): 10 mM): the “NF-kB SEAP reporter activity” value is 0.863 with RAW-Dual [2] (agonist: LPS (TLR4) 0.1 ug/mL), 0.906 with RAW-Dual [2] (setting [6]), 0.956 in the test with RAW-Dual [2] (setting [7]) and 0.975 in the test on RAW-Dual [2] (setting [8]).

As to `CCC(NC(=O)C(C)NC)C(=O)N1CC(O)CC1Cc1c(-c2[nH]c3cc(F)ccc3c2CC2CC(O)CN2C(=O)C(CC)NC(=O)C(C)NC)[nH]c2cc(F)ccc12` (stereo unspecified), the “NF-kB SEAP reporter activity” value was 0.863 in the test on RAW-Dual [1] (setting [4]) and 0.688 in the test on RAW-Dual [1] (setting [5]).

On to `NC1CCCN(c2c(Br)cnc3[nH]cc(NC(=O)C4CC4)c23)C1` (stereo unspecified) (library stock concentration (final ~1000-fold dilution): 10 mM), for which the “NF-kB SEAP reporter activity” value in the test with RAW-Dual [3] (agonist: LPS (TLR4) 0.1 ug/mL) was determined as 1.1; in the test on RAW-Dual [3] (setting [6]), 0.621; in the test with RAW-Dual [3] (setting [7]) it was 0.375; with RAW-Dual [3] (setting [8]), 0.487.

Consider `NC1CCCN(c2c(Br)cnc3[nH]cc(NC(=O)C4CC4)c23)C1` (stereo unspecified), for which the “NF-kB SEAP reporter activity” value with RAW-Dual [1] (cytotoxicity flag (confluency mask): cytotoxic (confluency <70% of control), agonist: Imiquimod (TLR7) […]) amounted to 0.557; with RAW-Dual [1] (cytotoxicity flag (confluency mask): cytotoxic (confluency <70% of control), agonist: MPLA (TLR4) […]), 0.792.

Take `CC(C)OC(=O)CCC/C=C\CC1C(O)CC(O)C1CCC(O)CCc1ccccc1` (stereo unspecified): the “NF-kB SEAP reporter activity” value in the test with RAW-Dual [1] (setting [5]) was 1.43.

`CC(C)OC(=O)CCC/C=C\CC1C(O)CC(O)C1CCC(O)CCc1ccccc1` (stereo unspecified) (library stock concentration (final ~1000-fold dilution): 10 mM): the “NF-kB SEAP reporter activity” value with RAW-Dual [2] (agonist: LPS (TLR4) 0.1 ug/mL) came to 1.4; with RAW-Dual [2] (setting [6]) it was 0.911; in the test with RAW-Dual [2] (setting [7]), 1.1; in the test with RAW-Dual [2] (setting [8]) it was 0.929.

The record behind these values is the supplement of paper PMC10037445.
